Experimental data from a collection of fitness landscapes (doi:10.1126/science.1257360).
The list shows a part of the results.

B1: PhoQ; a variant is named by its letters at X, in order, P23837 (parent)
chain: MKKLLRLFFPLSLRVRFLLATAAVVLVLSLAYGMVALIGYSVSFDKTTFRLLRGESNLFYTLAKWENNKLHVELPENIDKQSPTMTLIYDENGQLLWAQRDVPWLMKMIQPDWLKSNGFHEIEADVNDTSLLLSGDHSIQQQLQEVREDDDDAEMTHSVAVNVYPATSRMPKLTIVVVDTIPVELKSSYMVWSWFIYVLSANLLLVIPLLWVAAWWSLRPIEALAKEVRELEEHNRELLNPATTRELTSLVRNLNRLLKSERERYDKYRTTLTDLTHSLKTPLXXLQXXLRSLRSEKMSVSDAEPVMLEQISRISQQIGYYLHRASMRGGTLLSRELHPVAPLLDNLTSALNKVYQRKGVNISLDISPEISFVGEQNDFVEVMGNVLDNACKYCLEFVEISARQTDEHLYIVVEDDGPGIPLSKREVIFDRGQRVDTLRPGQGVGLAVAREITEQYEGKIVAGESMLGGARMEVIFGRQHSAPKDE

Variants of: B1
Test: enrichment ratio after two sorts for PhoP signalling (ratio (wild type AVST 3.29)); higher = more functional
Conditions: with PhoP (E. coli)

| Variant | enrichment ratio |
| --- | --- |
| RHRV | ≤ 0.25 |
| DACV | ≤ 0.25 |
| QCGQ | 0.634 |
| KSPC | ≤ 0.25 |
| HANF | ≤ 0.25 |
| DRMC | ≤ 0.25 |
| GFWM | ≤ 0.25 |
| GNAL | 7.59 |
| SRID | ≤ 0.25 |
| PTYS | ≤ 0.25 |
| RQPQ | ≤ 0.25 |
| FFSW | ≤ 0.25 |
| SFLW | ≤ 0.25 |
| YKIP | ≤ 0.25 |
| NKRS | ≤ 0.25 |
| TGGF | 15 |
| GHPG | ≤ 0.25 |
| FDTN | ≤ 0.25 |
| YQWH | ≤ 0.25 |
| GFMS | ≤ 0.25 |
| YGTW | ≤ 0.25 |
| FQPQ | ≤ 0.25 |
| MVCM | 1.44 |
| KVVH | ≤ 0.25 |

| Variant | enrichment ratio |
| --- | --- |
| IGGG | ≤ 0.25 |
| QLEY | ≤ 0.25 |
| MWEF | ≤ 0.25 |
| RTIA | ≤ 0.25 |
| WLSI | ≤ 0.25 |
| WCIS | ≤ 0.25 |
| IFNT | ≤ 0.25 |
| TDDD | ≤ 0.25 |
| WHDM | ≤ 0.25 |
| SNVG | 3.21 |
| SRRG | ≤ 0.25 |
| HDVF | ≤ 0.25 |
| RNPV | ≤ 0.25 |
| RGRV | ≤ 0.25 |
| MMNQ | ≤ 0.25 |
| YYRG | ≤ 0.25 |
| HGWM | ≤ 0.25 |
| VMTY | ≤ 0.25 |
| LTIR | ≤ 0.25 |
| YEQH | ≤ 0.25 |
| RNGT | ≤ 0.25 |
| PLFE | ≤ 0.25 |
| TKGG | ≤ 0.25 |
| WHKS | ≤ 0.25 |

| Variant | enrichment ratio |
| --- | --- |
| HDIE | ≤ 0.25 |
| VMWQ | ≤ 0.25 |
| MSTW | ≤ 0.25 |
| FDNG | ≤ 0.25 |
| PSHN | ≤ 0.25 |
| GYNG | ≤ 0.25 |
| RFYE | ≤ 0.25 |
| QTAR | ≤ 0.25 |
| DGDN | ≤ 0.25 |
| LIYI | ≤ 0.25 |
| FSQV | ≤ 0.25 |
| KCTS | ≤ 0.25 |
| PQWH | ≤ 0.25 |
| QYNH | ≤ 0.25 |
| GGCM | 9.15 |
| EFLF | ≤ 0.25 |
| MAAE | ≤ 0.25 |
| FVSN | ≤ 0.25 |
| VRCY | ≤ 0.25 |
| NDRL | ≤ 0.25 |
| MIMI | 1.14 |
| TYSP | 0.441 |
| HCYL | ≤ 0.25 |
| YFKD | ≤ 0.25 |

| Variant | enrichment ratio |
| --- | --- |
| HQAY | ≤ 0.25 |
| ACAD | ≤ 0.25 |
| HLSH | ≤ 0.25 |
| DNRA | ≤ 0.25 |
| SITS | 11.6 |
| PGGR | ≤ 0.25 |
| RMMN | ≤ 0.25 |
| SPDS | ≤ 0.25 |
| VTMW | ≤ 0.25 |
| EVAR | ≤ 0.25 |
| YSRC | ≤ 0.25 |
| GEFN | ≤ 0.25 |
| LEYM | ≤ 0.25 |
| WHSN | ≤ 0.25 |
| HWIQ | ≤ 0.25 |
| FRHT | ≤ 0.25 |
| SAMK | 17.9 |
| WMRG | ≤ 0.25 |
| AFVC | 1.11 |
| DWDH | ≤ 0.25 |
| FWYN | ≤ 0.25 |
| FVLQ | 1.95 |
| DEAK | ≤ 0.25 |
| IPMR | ≤ 0.25 |

| Variant | enrichment ratio |
| --- | --- |
| ALVQ | 0.788 |
| SQFC | ≤ 0.25 |
| YSVT | ≤ 0.25 |
| LAFQ | 2.23 |
| GMYA | ≤ 0.25 |
| GSYE | ≤ 0.25 |
| KGCM | ≤ 0.25 |
| KLYP | ≤ 0.25 |
| WMLV | ≤ 0.25 |
| HFLS | ≤ 0.25 |
| AQEY | ≤ 0.25 |
| RRKD | ≤ 0.25 |
| WGGM | ≤ 0.25 |
| HWTY | ≤ 0.25 |
| YIGT | ≤ 0.25 |
| VRCI | ≤ 0.25 |
| QYDD | ≤ 0.25 |
| GGFQ | ≤ 0.25 |
| KCHT | ≤ 0.25 |
| PICW | ≤ 0.25 |
| SFNT | ≤ 0.25 |
| KYQS | ≤ 0.25 |
| WFMA | ≤ 0.25 |
| DPSR | ≤ 0.25 |

| Variant | enrichment ratio |
| --- | --- |
| FHMI | ≤ 0.25 |
| IAWV | ≤ 0.25 |
| GMTF | 2.5 |
| RDPH | ≤ 0.25 |
| IFEM | 3.66 |
| YIRY | ≤ 0.25 |
| YNWV | ≤ 0.25 |
| YTPE | ≤ 0.25 |
| QSAF | ≤ 0.25 |
| EDKD | ≤ 0.25 |
| QSIR | ≤ 0.25 |
| DKFE | ≤ 0.25 |
| PDHV | ≤ 0.25 |
| EFRW | ≤ 0.25 |
| QCAG | ≤ 0.25 |
| PFNS | ≤ 0.25 |
| IPKW | ≤ 0.25 |
| YDAT | ≤ 0.25 |
| EICP | ≤ 0.25 |
| KVIL | ≤ 0.25 |
| TNNG | ≤ 0.25 |
| RNVE | ≤ 0.25 |
| HYLL | ≤ 0.25 |
| YPYN | ≤ 0.25 |

| Variant | enrichment ratio |
| --- | --- |
| VLCR | ≤ 0.25 |
| IWLD | ≤ 0.25 |
| HNWC | ≤ 0.25 |
| KRSY | ≤ 0.25 |
| NAGR | ≤ 0.25 |
| FWGH | ≤ 0.25 |
| LCYQ | ≤ 0.25 |
| RYAD | ≤ 0.25 |
| RNFC | ≤ 0.25 |
| DGRG | ≤ 0.25 |
| NESA | ≤ 0.25 |
| MAFD | ≤ 0.25 |
| LEMS | 8.78 |
| LCLC | ≤ 0.25 |
| MLDM | ≤ 0.25 |
| ETVK | ≤ 0.25 |
| QYHG | ≤ 0.25 |
| NTNM | ≤ 0.25 |
| NQWW | ≤ 0.25 |
| LWQG | ≤ 0.25 |
| HNPW | ≤ 0.25 |
| RGYG | ≤ 0.25 |
| TIQE | 15.1 |
| LHIM | ≤ 0.25 |

| Variant | enrichment ratio |
| --- | --- |
| NTHF | 0.486 |
| SKDP | ≤ 0.25 |
| LMNM | ≤ 0.25 |
| VAFP | ≤ 0.25 |
| MMLC | ≤ 0.25 |
| HMTG | ≤ 0.25 |
| RGNR | ≤ 0.25 |
| FFQC | ≤ 0.25 |
| DERR | ≤ 0.25 |
| HIAH | ≤ 0.25 |
| YPLW | ≤ 0.25 |
| QYWS | ≤ 0.25 |
| LQLP | ≤ 0.25 |
| NLVV | ≤ 0.25 |
| VTLH | 1.22 |
| IVMM | ≤ 0.25 |
| AYFP | ≤ 0.25 |
| DMSF | ≤ 0.25 |
| AVSQ | 14.8 |
| FDCI | ≤ 0.25 |
| VIHQ | ≤ 0.25 |
| SDEI | ≤ 0.25 |
| WESK | ≤ 0.25 |
| KEVH | ≤ 0.25 |

| Variant | enrichment ratio |
| --- | --- |
| VRCQ | ≤ 0.25 |
| SKAS | 7.22 |
| GHYC | ≤ 0.25 |
| KLNF | ≤ 0.25 |
| YLWI | ≤ 0.25 |
| SSGN | 2.51 |
| NPTK | ≤ 0.25 |
| QKFS | ≤ 0.25 |
| TQHV | 5.45 |
| YTWH | ≤ 0.25 |
| RTPM | ≤ 0.25 |
| RPCL | ≤ 0.25 |
| VECE | ≤ 0.25 |
| RGSW | ≤ 0.25 |
| WESP | ≤ 0.25 |
| DTSI | ≤ 0.25 |
| MNAT | 6.83 |
| FCAW | ≤ 0.25 |
| WRYG | ≤ 0.25 |
| SKCH | 9.88 |
| GFST | ≤ 0.25 |
| VYSE | ≤ 0.25 |
| IFMR | ≤ 0.25 |
| EAVW | ≤ 0.25 |

| Variant | enrichment ratio |
| --- | --- |
| AEWV | ≤ 0.25 |
| HAIN | ≤ 0.25 |
| VGYD | ≤ 0.25 |
| TQMN | ≤ 0.25 |
| QSVA | ≤ 0.25 |
| YGCS | ≤ 0.25 |
| GYKP | ≤ 0.25 |
| RRFA | ≤ 0.25 |
| PGTL | ≤ 0.25 |
| ECPA | ≤ 0.25 |
| VTLD | ≤ 0.25 |
| PLWD | ≤ 0.25 |
| ERQR | ≤ 0.25 |
| IAEQ | ≤ 0.25 |
| VCVR | ≤ 0.25 |
| PETF | ≤ 0.25 |
| YTFE | ≤ 0.25 |
| NEND | ≤ 0.25 |
| QWAV | ≤ 0.25 |
| LIWM | ≤ 0.25 |
| KLIF | ≤ 0.25 |
| SCDA | ≤ 0.25 |
| PKKR | ≤ 0.25 |
| NFIG | ≤ 0.25 |

| Variant | enrichment ratio |
| --- | --- |
| RNWF | ≤ 0.25 |
| LSCH | ≤ 0.25 |
| FNED | ≤ 0.25 |
| VYLV | ≤ 0.25 |
| GTIG | 1.96 |
| DPAM | ≤ 0.25 |
| HRSI | ≤ 0.25 |
| STMP | ≤ 0.25 |
| PNQT | ≤ 0.25 |
| HFMT | ≤ 0.25 |
| KNYK | ≤ 0.25 |
| RWRS | ≤ 0.25 |
| HDSW | ≤ 0.25 |
| MPKS | ≤ 0.25 |
| KQNL | ≤ 0.25 |
| QMVV | ≤ 0.25 |
| YWSI | ≤ 0.25 |
| QMPM | ≤ 0.25 |
| WQVC | ≤ 0.25 |
| FPCH | ≤ 0.25 |
| ASAN | 6.39 |
| VPGG | ≤ 0.25 |
| YCSC | ≤ 0.25 |
| AVIS | 0.697 |

| Variant | enrichment ratio |
| --- | --- |
| GCRS | ≤ 0.25 |
| APKH | ≤ 0.25 |
| QLNP | ≤ 0.25 |
| ALTP | ≤ 0.25 |
| KFRQ | ≤ 0.25 |
| HTHK | ≤ 0.25 |
| FTFR | ≤ 0.25 |
| GHPP | ≤ 0.25 |
| DQSQ | ≤ 0.25 |
| AELG | 5.28 |
| YYAK | ≤ 0.25 |
| RAKT | ≤ 0.25 |
| NSVK | ≤ 0.25 |
| WMIF | ≤ 0.25 |
| NHGM | ≤ 0.25 |
| IIMH | ≤ 0.25 |
| SKEI | ≤ 0.25 |
| HHHP | ≤ 0.25 |
| WKEH | ≤ 0.25 |
| EYVE | ≤ 0.25 |
| IPWW | ≤ 0.25 |
| VVDD | ≤ 0.25 |
| YIRD | ≤ 0.25 |
| QVCP | ≤ 0.25 |

| Variant | enrichment ratio |
| --- | --- |
| KIHY | ≤ 0.25 |
| NQVL | ≤ 0.25 |
| GPFG | ≤ 0.25 |
| WLDL | ≤ 0.25 |
| DWSD | ≤ 0.25 |
| LKIP | ≤ 0.25 |
| IYGR | ≤ 0.25 |
| TEPS | ≤ 0.25 |
| ILFG | ≤ 0.25 |
| TEPW | ≤ 0.25 |
| YKNK | ≤ 0.25 |
| IMSE | ≤ 0.25 |
| YGKN | ≤ 0.25 |
| ILDA | ≤ 0.25 |
| SVAW | 5.54 |
| HGLN | ≤ 0.25 |
| YVFN | ≤ 0.25 |
| WTDS | ≤ 0.25 |
